In PubChem BioAssay AID493208 (National Center for Advancing Translational Sciences (NCATS), 2011):
Among all 44,000 compounds or so, about 340 (0.77%) were called active. About 5% were inconclusive and are not listed. Calls follow the shape of the dose curve; as a rule, active = well fitted inhibition curve with a large enough effect; inconclusive = small, poorly fitted or top-dose-only effect; inactive = flat fitted curve, though single readings scatter. Some of the results follow.

Assay: Acumen qHTS Assay for Inhibitors of the mTORC1 Signaling Pathway in MEF (Tsc2-/-, p53-/-) Cells: Sytravon;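 also: plate controls were DMSO for no effect and rapamycin for full effect; nearly all actives have a fitted effect of over 50% in size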
Settings: phospho-rpS6 immunofluorescence/PI, 24 h; series mostly up to 38.3 µM; activity change, negative = inhibition: at the top concentration
How it was run: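 Compounds act on Tsc2-/-, p53-/- fibroblasts carrying an empty vector for 24 h before fixation and dual staining for phospho-S6 and DNA (propidium iodide). Values are percentages of cells above a rapamycin-defined pS6/PI threshold.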

Activity change, negative = inhibition, inactive:
COC(=O)c1ccccc1NC(=O)N1CCc2c(sc3c2CCCC3)C1c1ccc(F)cc1 (stereo unspecified) 0%, Cc1ccccc1Cn1c(CN2CCCC(C)C2)nc2c1c(=O)n(C)c(=O)n2C (stereo unspecified) -8.44%, CCOc1ccc(C(=O)c2cn(CC(=O)Nc3ccc(Cl)cc3)c3cc4c(cc3c2=O)OCCO4)cc1 -4.23%, CCc1cccc(C)c1NC(=O)c1cccc(C(=O)Nc2c(C)cccc2CC)c1 -3.84%, COc1ccc(Cl)cc1NC(=O)c1cc2c(s1)-c1ccccc1OC2 -6.23%, CCc1ccc(OC(C)C(=O)Nc2c(C(=O)c3ccccc3)oc3ccccc23)cc1 (stereo unspecified) 0.911%, COCCNC(=O)CCc1nc2cccnc2n1Cc1ccc(OC)cc1 -15.3%, CS(=O)(=O)N(CC(=O)NCCSc1ccccc1)c1cc(C(F)(F)F)ccc1Cl 1.49%, Oc1c(Br)cc(Br)cc1-c1nc2ccccc2s1 9.9%, COc1ccc(OC)c(NC(=O)CSc2cn(CC(=O)N3CCOCC3)c3ccccc23)c1 -0.525%, COc1cccc(C2C(C(=O)Nc3ccccc3)=C(C)Nc3nc(-c4ccccc4)nn32)c1 (stereo unspecified) -1.25%, CCCN(CCC)C(=O)C1CCCN(S(=O)(=O)c2ccc3c(c2)oc(=O)n3C)C1 (stereo unspecified) -4.72%, Cc1ccc(-c2nc(CS(=O)CC(=O)N3CCN(c4ccccc4)CC3)c(C)o2)cc1 (stereo unspecified) -0.604%, O=C(c1ccccc1)c1ccccc1NC(=O)c1ccccc1C(=O)O -5.23%, COc1ccc(-c2noc(-c3ccc(NC4CCCC4)c([N+](=O)[O-])c3)n2)cc1 -6.94%, CC(=O)c1ccc(N2CCN(C(=O)c3cc4cc5cc(C)ccc5nc4s3)CC2)cc1 -5.69%, Cc1ccc(C)c(NC(=O)C2CCCN(S(=O)(=O)c3ccc4[nH]c(=O)ccc4c3)C2)c1 (stereo unspecified) -18.9%, Cc1ccc(C(=O)c2oc3ccccc3c2NC(=O)c2cc(-c3ccccc3)on2)cc1F -0.656%, O=C(Nc1ccc(SC(F)F)cc1)c1cc(-c2ccc3c(c2)OCCO3)on1 0.232%, Cc1noc(Cn2c(=O)c3cc4c(cc3n(CC(=O)Nc3cccc(Cl)c3)c2=O)OCO4)n1 -0.247%, CCOc1ccc(CNC(=O)c2c(C)nn(-c3ccc(F)cc3)c2-n2cccc2)cc1 -7.39%, CC(=O)Nc1nonc1-c1nnc(SCC(=O)Nc2ccc(C)cc2C)n1C -7.24%, COc1ccc(NC(=O)[C@@H](c2ccccc2)N2Cc3ccccc3C2=O)cc1OC 1.61%, CC1CCc2c(sc(NC(=O)COc3ccccc3)c2C(=O)Nc2ccccc2Cl)C1 (stereo unspecified) -6.63%, Cc1ccc(CSCC(=O)N2CCN(c3cc(Cl)ccc3C)CC2)cc1 7.45%, Cc1ccc(-n2nc(C(=O)NCCN(C)C)c(=O)n(C)c2=O)cc1 3.35%, COc1ccc(C2C(C(N)=O)=C(C)Nc3nc(-c4ccccc4Cl)nn32)cc1 (stereo unspecified) 4%, Cc1ccc2oc(C(=O)N(Cc3ccccc3F)C3CCS(=O)(=O)C3)c(C)c2c1 (stereo unspecified) -11%, Cc1[nH]c2ccccc2c1C(=O)C(=O)NC1CC(=O)N(c2cccc(F)c2)C1 (stereo unspecified) -2.97%, COc1cccc(NC(=O)CC2C(=O)OCCN2Cc2ccccc2)c1 (stereo unspecified) 2.68%, CCCCOc1ccc(-c2cc3c(=O)n(CC(=O)Nc4ccc(Cl)cc4Cl)ccn3n2)cc1 -2.7%, O=C(CSc1nc2c(cnn2-c2ccc(F)cc2)c(=O)[nH]1)Nc1ccc(Br)cc1 11.3%, Cc1ccc(-c2nn(CC(=O)NC3CCCCC3)c3c2cnc2ccc(F)cc23)cc1C -13.7%, CCOc1cccc2cc(-c3nnc(Nc4ccc(F)c(Cl)c4)s3)c(=O)oc12 0.841%, COc1cccc(CNC(=O)c2cc(=O)[nH]c3ccc(S(=O)(=O)N4CCCCC4)cc23)c1 -1.56%, COc1ccccc1CNC(=O)c1ccc2c(c1)sc1nc(-c3ccc(F)cc3)cn12 -1.83%, Cc1cccc(C)c1Nc1c(-c2ccc(Cl)s2)nc2ncccn12 4.08%, Cc1ccc(Cl)cc1NC(=O)CN(C)S(=O)(=O)c1ccc2c(c1)n(C)c(=O)c(=O)n2C -8.81%, COc1ccc(CCNC(=O)c2cc(-c3ccccc3)nc3ccccc23)cc1OC 1.08%, COC(=O)c1scc(-c2ccc(C)cc2)c1S(=O)(=O)Nc1cccc(C(F)(F)F)c1 1.23%, CCn1cc(C(=O)OCC(=O)Nc2cc(C)cc(C)c2)c(=O)c2ccc(C)nc21 -6.57%, O=C(CSc1nc2ccccc2c(=O)n1CCC(=O)NC1CCCCC1)Nc1ccccc1Cl 1.47%, COC(=O)c1sc2cccc(F)c2c1S(=O)(=O)Nc1cc(OC)cc(OC)c1 -9.6%, Cc1nn(CCCC(=O)NCc2ccccc2)c(=O)c2nn(-c3ccccc3)c(C)c12 0.658%, CCC(=O)N1CCc2cc(S(=O)(=O)NCCC(=O)Nc3ccc(OC)c(Cl)c3)ccc21 -18.6%, CCOc1ccc(CC(=O)Nc2nnc3n2CCS3)cc1 0.986%, O=C(CSc1cn(CC(=O)N2CCCCCC2)c2ccccc12)Nc1ccccc1F -14%, CCc1nnc2c(NCc3ccccc3OC)nc3ccccc3n12 -14.6%, CC(C)c1nnc(N2C(=O)c3oc4ccccc4c(=O)c3C2c2cccc(O)c2)s1 (stereo unspecified) 1.47%, COC(=O)CNC(=O)C(Cc1ccccc1)NS(=O)(=O)c1ccc2c(c1)c(=O)n(C)c(=O)n2C (stereo unspecified) 1.99%, CCN(C(=O)C1CCN(S(=O)(=O)c2ccc3c(c2)CCCN3C(=O)C2CCC2)CC1)c1cccc(C)c1 -12.5%, Cc1c(Cl)cccc1NC(=O)c1cnc2sc(N3CCCC3)nn2c1=O -11.9%, Cc1ccc(NC(=O)Cn2c(=O)n(CCCCCC(=O)NCc3ccc(F)cc3)c(=O)c3sccc32)c(C)c1 -17.5%, COCCN1Cc2cccc(C(=O)Nc3ccc(C)cc3C)c2C1=O 0.0743%, Cc1cc2c(cc1S(=O)(=O)N1CCC(C)CC1)OCC(=O)N2 7.64%, O=C(COc1ccccc1)Nc1ccc(S(=O)(=O)N(Cc2ccccc2)c2ccccc2)cc1 0.547%, Cc1c(C(=O)NCc2ccc(N(C)C)cc2)oc2c1-c1nn(Cc3cccc(Cl)c3)cc1CC2 0.0257%, COc1ccc(-c2nc(-c3ccccc3)c(-c3ccccc3)[nH]2)cc1Br -5.85%, CCCC12CN3CC(CCC)(CN(C1)C3c1c[nH]c3ccccc13)C2=O (stereo unspecified) -13.4%, Cc1ccc(-c2nnc(SCC(=O)N3CCc4ccccc43)o2)cc1 0.152%, Cc1cc(C)cc(NC(=O)Cn2c(=O)oc3cc(S(=O)(=O)N4CCCC4)ccc32)c1 -9.08%, O=S(=O)(c1ccc2ccccc2c1)n1nc(-c2ccco2)nc1NCc1cccc(Cl)c1 1.94%, Cc1ccc(CNC(=O)c2ccc3c(c2)N(Cc2ccccc2F)C(=O)c2ccccc2S3(=O)=O)cc1 -1.6%, COc1cccc(CNC(=O)c2cnc(N3CCCC3)nc2C)c1 4.43%, COc1ccc(S(=O)(=O)c2cn(C)c3cc(N4CCCC4)c(F)cc3c2=O)cc1 -3.05%, CCOc1ccc(CCNC(=O)Cn2nnc(-c3ccc(OC)c(OC)c3)n2)cc1OCC -6.57%, CN1CCN(C(CNC(=O)C(=O)Nc2ccc(F)cc2F)c2ccc3c(c2)OCO3)CC1 (stereo unspecified) -1.11%, CC(C)Oc1ccc(CNS(=O)(=O)c2cnc(N)nc2)cc1 -0.15%, CCOc1cc(CNCCSc2nnnn2-c2ccccc2)cc(Cl)c1OC -8.25%, COc1cc(NC(=O)c2nnn(CC(=O)Nc3ccccc3)c2N)cc(OC)c1 -7.97%, Cc1ccc2nc(-c3ccc(NC(=O)COc4c(C)ccc(C)c4C)cc3)sc2c1 1.62%, O=C(NC1CCCCC1)c1ccc2c(c1)N(Cc1ccccc1)C(=O)c1ccccc1S2 6.35%, CSc1nc(-c2ccc(F)cc2)nc2c1Cc1c(CO)cnc(C)c1O2 -4.38%, CCCc1nn2c(=O)cc(COC(=O)c3ccc(NC(=O)C(C)Oc4ccccc4)cc3)nc2s1 (stereo unspecified) 6.74%, CCCCNc1nc(Oc2ccc(=O)n(C)n2)nc(N(C)C)n1 -6.05%, COc1ccc(C(=O)c2cn(Cc3ccc(C)cc3)c3cc4c(cc3c2=O)OCO4)cc1 -0.575%, COc1ccccc1-c1noc(CSc2nc3ccc(C)cc3[nH]2)n1 -6.43%, O=C(CSc1cn(CC(=O)N2CCCCC2)c2ccccc12)Nc1ccccc1F -13.7%, Cc1c(Cl)cccc1NC(=O)CCn1c(=O)c2cccn2c2ccccc21 -14.6%, Cc1ccc2c(CC(=O)Nc3ccccc3C(F)(F)F)coc2c1C 5.1%, CC(CNC(=O)C1CCN(Cc2cc3ccccc3n2Cc2ccccc2)CC1)c1ccccc1 (stereo unspecified) -15%, CCOc1ccccc1NC(=O)CSc1nccn1-c1ccc(Cl)cc1 -1.07%, CSc1ccc(CCNC(=O)C2CCN(c3nc4ccccc4nc3C(F)(F)F)CC2)cc1 0.724%, O=C(Cn1c(=O)n(Cc2ccc3c(c2)OCO3)c(=O)c2oc3ccccc3c21)Nc1ccccc1 0.649%, Cc1ccccc1CNC(=O)C1CCN(c2nnc(C)c3c(C)n(-c4ccccc4)nc23)CC1 -1.07%, CCc1ccc(-c2nc3ccc(Br)cc3c(C(=O)O)c2C)s1 0.15%, CCn1c(C(=O)NCc2cccc(Br)c2)cc2oc3ccccc3c21 -8.15%, COC(=O)c1ccc(NC(=O)c2c(NCc3ccc(C)o3)sc3c2CCCC3)cc1 0.808%, CCc1nnc(NC(=O)c2cc(=O)c3cc(C)c(C)cc3o2)s1 0.927%, COc1cc(-c2noc(-c3cc4cc(F)ccc4oc3=O)n2)cc(OC)c1OC -3.66%, CN1C(=O)C2(c3ccccc31)N(c1ccccc1)C(=O)CS2(=O)=O (stereo unspecified) -21.7%, Cc1cc(C)c2oc(C(=O)Nc3sc4c(c3C(=O)NCc3ccco3)CCC4)cc(=O)c2c1 -5.23%, Cc1ccc(NC(=O)/C=C/c2ccccc2)c(Br)c1 17.8%, COc1ccc(-c2nc3scc(CCNS(=O)(=O)c4c(C)noc4C)n3n2)cc1 -1.36%, CN1CCN(C(=O)C(=O)Nc2c3c(nn2-c2ccc(F)cc2)CSC3)CC1 -0.505%, Cc1ccc(C)c(CN2C(=O)c3ccccc3S(=O)(=O)c3ccc(C(=O)Nc4ccccc4C(F)(F)F)cc32)c1 1.4%
